± gives the standard deviation of the averaged measurements. Whole data set: some 33,000 sequences, median “E-score (dimensionless, -0.5 to 0.5)” near -0.046, cut for the highest 2% near 0.36. The list shows a part of the results.
These sequences were tested on T1, SpTbr T-box DNA-binding domain (GST fusion) (assay: PBM E-score of 8-mer (E-score (dimensionless, -0.5 to 0.5)); Tbr is Tbrain of the sea star Patiria miniata (Pm) or the sea urchin Strongylocentrotus purpuratus (Sp); higher = stronger binding preference; most listed sequences are background and not binding sites). Conditions: the construct has about 5 more residues each side.
T1 sequence: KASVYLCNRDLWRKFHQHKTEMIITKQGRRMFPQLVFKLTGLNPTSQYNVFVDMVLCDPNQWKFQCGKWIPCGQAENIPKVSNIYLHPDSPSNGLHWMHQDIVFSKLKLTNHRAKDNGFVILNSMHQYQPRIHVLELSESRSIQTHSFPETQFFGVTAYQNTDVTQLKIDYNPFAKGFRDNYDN
Method in brief: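 Primer extension turned Universal Agilent oligonucleotide arrays double-stranded. They were incubated with 200 nM protein in PBS (pH 7.5); the protein was a GST-fused Tbr T-box DNA-binding domain expressed in BL21 E. coli at 20 °C and purified on glutathione. Every ungapped 8-mer was scored from the scanned, quantified probe intensities, and the Universal PBM Analysis Suite gave each an enrichment E-score averaged over duplicate arrays.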

| Sequence | PBM E-score of 8-mer |
| --- | --- |
| CCGCGGCC | -0.255 ± 0.11 |
| TGCCTAAA | 0.05 ± 0.06 |
| CAACGCTG | 0.178 ± 0.016 |
| AGCGTTTA | -0.113 ± 0.017 |
| AGTGCTCC | -0.0941 ± 0.03 |
| AACCGATT | -0.0309 ± 0.044 |
| CGAACCAC | 0.0139 ± 0.059 |
| ATGTATCA | 0.144 ± 0.021 |
| GAGTAATC | 0.0889 ± 0.028 |
| GTAAATCA | -0.00407 ± 0.026 |
| AAAATGTT | -0.234 ± 0.062 |
| GCTGGACC | -0.282 ± 0.085 |
| AGAATCAG | -0.267 ± 0.034 |
| CAGGCATA | -0.2 ± 0.026 |
| GATAGCAC | 0.3602 ± 0.0019 |
| CGGAACAG | -0.0788 ± 0.066 |
| GAAGCCGC | 0.0501 ± 0.038 |
| TCCCACCA | 0.154 ± 0.04 |
| GACTGCTC | -0.193 ± 0.02 |
| AAGTACGA | -0.0585 ± 0.034 |
| GGGACGGA | -0.163 ± 0.063 |
| CACACTAA | 0.305 ± 0.034 |

| Sequence | PBM E-score of 8-mer |
| --- | --- |
| GACCGTGC | 0.00624 ± 0.061 |
| GTGAGCGA | 0.2245 ± 0.00028 |
| AGGCTGAA | -0.129 ± 0.037 |
| CCGTCTCC | -0.189 ± 0.043 |
| CAGGAGCG | -0.0447 ± 0.098 |
| AAGGGTGA | 0.136 ± 0.04 |
| ACTCGTAT | 0.0399 ± 0.089 |
| AGAGACCC | -0.192 ± 0.0083 |
| CTGGGCTC | -0.215 ± 0.054 |
| ACTTAACT | 0.104 ± 0.0014 |
| CTCGGGCC | -0.167 ± 0.0065 |
| CAATGGAC | -0.0329 ± 0.0081 |
| CCCAGACC | -0.0208 ± 0.1 |
| CGAGTCCA | -0.183 ± 0.08 |
| GAGCGAAA | 0.0791 ± 0.049 |
| ATTTAGCG | 0.0855 ± 0.028 |
| ACCACAAC | 0.121 ± 0.067 |
| ACTGCATA | 0.0429 ± 0.064 |
| CCGCCCAG | 0.0779 ± 0.012 |
| GACTGCTA | -0.00799 ± 0.013 |
| AAAGCTTA | -0.0784 ± 0.018 |
| ACAACCAA | 0.0641 ± 0.0038 |

| Sequence | PBM E-score of 8-mer |
| --- | --- |
| GAGCATAC | 0.00464 ± 0.0056 |
| CGAATTCC | -0.0929 ± 0.082 |
| AGTCCCAC | 0.0601 ± 0.042 |
| ATGCAATA | -0.39 ± 0.032 |
| GCAACAAC | 0.0625 ± 0.016 |
| CGAAATAA | 0.201 ± 0.069 |
| TCACTTCA | 0.151 ± 0.018 |
| GGTGTAGA | 0.35 ± 0.009 |
| AGCACCGG | -0.0409 ± 0.027 |
| AATAAAAT | -0.0829 ± 0.032 |
| ATCTCCAC | 0.0376 ± 0.0077 |
| GCCTGGCA | 0.127 ± 0.019 |
| GATTCCCA | 0.0623 ± 0.015 |
| AAGCGTTC | 0.00311 ± 0.039 |
| AGCATCCT | -0.0697 ± 0.018 |
| AGACATCT | -0.116 ± 0.036 |
| AGACAACA | 0.231 ± 0.044 |
| TCTCTCAA | 0.139 ± 0.051 |
| GGAGCGTA | -0.158 ± 0.04 |
| ACAAATAT | 0.0365 ± 0.017 |
| AAACTAAC | 0.171 ± 0.017 |
| ATTAGTCC | -0.319 ± 0.084 |

| Sequence | PBM E-score of 8-mer |
| --- | --- |
| AAGACACC | 0.31 ± 0.023 |
| ACTCGTTA | 0.118 ± 0.074 |
| ACATATTA | -0.0539 ± 0.0078 |
| CTGGTAAG | -0.132 ± 0.066 |
| AGGTTTGA | 0.0298 ± 0.023 |
| AAGAGGAA | -0.192 ± 0.072 |
| GGCGGTAC | 0.00445 ± 0.029 |
| GATGCGCA | 0.014 ± 0.028 |
| ATGTGTGG | 0.356 ± 0.007 |
| TCAGCGCA | 0.0158 ± 0.036 |
| GCTTGGCC | -0.297 ± 0.015 |
| CTAGAATC | -0.0795 ± 0.0046 |
| CTGTCACC | 0.396 ± 0.0078 |
| CTTTAAAG | 0.0215 ± 0.12 |
| CATGTCAG | -0.0973 ± 0.0046 |
| AGTGAGCC | 0.00758 ± 0.039 |
| GATCAAAC | 0.0452 ± 0.025 |
| AGTTGACG | 0.226 ± 0.0068 |
| GAAGCCTA | -0.182 ± 0.037 |
| TCAGCCCA | -0.148 ± 0.021 |

Reference: the supplement of paper PMC4166925
